In patent US11178870B2 (priority 2017, dated 2021):

Key:
Phytophthora infestans = format: in vivo; conditions: Table 7, Test F
[1] = test system: Colletotrichum orbiculare; conditions: 250 ppm sprayed (2.5 ml/pot) before inoculation; assessed 6 to 10 days after inoculation
Magnaporthe grisea = format: in vivo; conditions: Table 7, Test A

SMILES	control value, Test F (late blight on tomato) (Phytophthora infestans)	control value, Test H (anthracnose on cucumber) [1]	control value, Test A (blast on rice) (Magnaporthe grisea)
CCn1c(-c2ccc(F)cc2Cl)c(-n2cc(C)cn2)ccc1=O [Compound 334]	L (L shows the control value of 50% or less)	H (H shows the control value more than 50%)	H (H shows the control value more than 50%)
CCn1c(-c2ccc(F)cc2Cl)c(-n2cc(C)cn2)cc(Br)c1=O [Compound 335]	L (L shows the control value of 50% or less)	H (H shows the control value more than 50%)	H (H shows the control value more than 50%)
CCn1c(-c2ccc(F)cc2Cl)c(-n2ncc(C)c2Cl)cc(Cl)c1=O [Compound 336]	H (H shows the control value more than 50%)	H (H shows the control value more than 50%)	H (H shows the control value more than 50%)
CCn1c(-c2ccc(F)cc2Cl)c(-n2ncc(C)c2Cl)cc(Br)c1=O [Compound 337]	H (H shows the control value more than 50%)	H (H shows the control value more than 50%)	H (H shows the control value more than 50%)
Cc1cnn(-c2ccc(=O)n(CC(F)F)c2-c2ccc(F)cc2Br)c1 [Compound 338]	L (L shows the control value of 50% or less)	H (H shows the control value more than 50%)	H (H shows the control value more than 50%)
Cc1cnn(-c2cc(Br)c(=O)n(CC(F)F)c2-c2ccc(F)cc2Br)c1 [Compound 339]	L (L shows the control value of 50% or less)	H (H shows the control value more than 50%)	H (H shows the control value more than 50%)
Cc1cnn(-c2cc(Cl)c(=O)n(CC(F)F)c2-c2ccc(F)cc2Br)c1Cl [Compound 340]	L (L shows the control value of 50% or less)	H (H shows the control value more than 50%)	H (H shows the control value more than 50%)
Cc1cnn(-c2cc(Br)c(=O)n(CC(F)F)c2-c2ccc(F)cc2Br)c1Cl [Compound 341]	H (H shows the control value more than 50%)	H (H shows the control value more than 50%)	H (H shows the control value more than 50%)
Cc1cnn(-c2ccc(=O)n(CC(F)F)c2-c2ccc(F)cc2Cl)c1 [Compound 342]	L (L shows the control value of 50% or less)	H (H shows the control value more than 50%)	H (H shows the control value more than 50%)
Cc1cnn(-c2cc(Cl)c(=O)n(CC(F)F)c2-c2ccc(F)cc2Cl)c1Cl [Compound 343]	L (L shows the control value of 50% or less)	H (H shows the control value more than 50%)	H (H shows the control value more than 50%)
Cc1cnn(-c2cc(Br)c(=O)n(CC(F)F)c2-c2ccc(F)cc2Cl)c1 [Compound 344]	L (L shows the control value of 50% or less)	H (H shows the control value more than 50%)	H (H shows the control value more than 50%)
Cc1cnn(-c2cc(Br)c(=O)n(CC(F)F)c2-c2ccc(F)cc2Cl)c1Cl [Compound 345]	L (L shows the control value of 50% or less)	H (H shows the control value more than 50%)	H (H shows the control value more than 50%)
O=c1c(Br)cc(-c2ccsc2Br)c(-c2c(F)cccc2F)n1CC(F)F [Compound 346]	L (L shows the control value of 50% or less)	H (H shows the control value more than 50%)	H (H shows the control value more than 50%)
O=c1c(Cl)cc(-c2ccsc2Br)c(-c2c(F)cccc2F)n1CC(F)F [Compound 347]	L (L shows the control value of 50% or less)	H (H shows the control value more than 50%)	H (H shows the control value more than 50%)
O=c1ccc(-c2cc(Cl)sc2Br)c(-c2c(F)cccc2F)n1CC(F)F [Compound 348]	L (L shows the control value of 50% or less)	L (L shows the control value of 50% or less)	H (H shows the control value more than 50%)
O=c1c(Cl)cc(-c2cc(Cl)sc2Br)c(-c2c(F)cccc2F)n1CC(F)F [Compound 349]	L (L shows the control value of 50% or less)	H (H shows the control value more than 50%)	H (H shows the control value more than 50%)

SMILES	control value, Test F (late blight on tomato) (Phytophthora infestans)	control value, Test H (anthracnose on cucumber) [1]	control value, Test A (blast on rice) (Magnaporthe grisea)
CCn1c(-c2ccccc2Cl)c(-n2cc(F)cn2)ccc1=O [Compound 350]	L (L shows the control value of 50% or less)	H (H shows the control value more than 50%)	L (L shows the control value of 50% or less)
CCn1c(-c2ccccc2Cl)c(-n2cc(F)cn2)cc(Cl)c1=O [Compound 351]	L (L shows the control value of 50% or less)	H (H shows the control value more than 50%)	H (H shows the control value more than 50%)
CCn1c(-c2ccc(F)cc2Br)c(-n2cc(F)cn2)cc(Cl)c1=O [Compound 352]	L (L shows the control value of 50% or less)	H (H shows the control value more than 50%)	H (H shows the control value more than 50%)
CCn1c(-c2ccc(F)cc2Br)c(-n2cc(F)cn2)cc(Br)c1=O [Compound 353]	L (L shows the control value of 50% or less)	H (H shows the control value more than 50%)	H (H shows the control value more than 50%)
CCn1c(-c2ccc(OC)cc2Br)c(-n2cc(F)cn2)ccc1=O [Compound 354]	L (L shows the control value of 50% or less)	H (H shows the control value more than 50%)	H (H shows the control value more than 50%)
CCn1c(-c2ccc(OC)cc2Br)c(-n2cc(F)cn2)cc(Cl)c1=O [Compound 355]	L (L shows the control value of 50% or less)	H (H shows the control value more than 50%)	H (H shows the control value more than 50%)
CCn1c(-c2ccccc2Br)c(-n2cc(F)cn2)ccc1=O [Compound 356]	L (L shows the control value of 50% or less)	L (L shows the control value of 50% or less)	L (L shows the control value of 50% or less)
CCn1c(-c2ccccc2Br)c(-n2cc(F)cn2)cc(Cl)c1=O [Compound 357]	L (L shows the control value of 50% or less)	H (H shows the control value more than 50%)	H (H shows the control value more than 50%)
CCn1c(-c2ccccc2Br)c(-n2cc(F)cn2)cc(Br)c1=O [Compound 358]	L (L shows the control value of 50% or less)	H (H shows the control value more than 50%)	H (H shows the control value more than 50%)
CCn1c(-c2c(F)cccc2F)c(-c2sccc2C)ccc1=O [Compound 359]	H (H shows the control value more than 50%)	H (H shows the control value more than 50%)	H (H shows the control value more than 50%)
CCn1c(-c2c(F)cccc2Br)c(-n2cc(F)cn2)ccc1=O [Compound 360]	L (L shows the control value of 50% or less)	H (H shows the control value more than 50%)	H (H shows the control value more than 50%)
CCn1c(-c2ccc(OC)cc2Cl)c(-n2cc(F)cn2)cc(Cl)c1=O [Compound 361]	L (L shows the control value of 50% or less)	H (H shows the control value more than 50%)	H (H shows the control value more than 50%)
CCn1c(-c2ccc(OC)cc2Cl)c(-n2cc(F)cn2)ccc1=O [Compound 362]	L (L shows the control value of 50% or less)	H (H shows the control value more than 50%)	H (H shows the control value more than 50%)
CCn1c(-c2ccc(OC)cc2Cl)c(-n2cc(F)cn2)cc(Br)c1=O [Compound 363]	L (L shows the control value of 50% or less)	H (H shows the control value more than 50%)	H (H shows the control value more than 50%)
CCn1c(-c2c(F)cccc2F)c(-c2sccc2Br)ccc1=O [Compound 364]	L (L shows the control value of 50% or less)	H (H shows the control value more than 50%)	H (H shows the control value more than 50%)
